± gives the standard deviation of the averaged measurements. The full ranking holds about 33,000 sequences; the median of “E-score (dimensionless, -0.5 to 0.5)” is about -0.046, and the highest 2% start at about 0.36. Some of the results follow.
System: T1, SpTbr T-box DNA-binding domain (GST fusion)
T1 sequence: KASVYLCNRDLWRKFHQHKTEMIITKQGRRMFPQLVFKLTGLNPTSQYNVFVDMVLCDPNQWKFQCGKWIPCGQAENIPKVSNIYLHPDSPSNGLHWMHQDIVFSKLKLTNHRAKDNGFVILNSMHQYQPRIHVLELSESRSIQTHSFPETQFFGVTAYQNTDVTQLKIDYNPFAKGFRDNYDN
Experiment: PBM E-score of 8-mer (E-score (dimensionless, -0.5 to 0.5)); Tbr is Tbrain of the sea star Patiria miniata (Pm) or the sea urchin Strongylocentrotus purpuratus (Sp); higher = stronger binding preference; most listed sequences are background and not binding sites
Settings: the construct has about 5 more residues each side
Outline: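 Each ungapped 8-mer received an enrichment E-score from the Universal PBM Analysis Suite, averaged over duplicate arrays. The proteins were Tbr T-box DNA-binding domains, covering the whole T-box plus about five flanking residues, fused to GST and expressed in BL21 E. coli at 20 °C before glutathione affinity purification. Universal Agilent oligonucleotide arrays were made double-stranded by primer extension and incubated with 200 nM protein in PBS (pH 7.5). The arrays were then scanned and quantified, and every 8-mer was scored from probe intensities.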

Sequence	PBM E-score of 8-mer
CCGGTCCA	-0.108 ± 0.034
AGCTTAGG	-0.137 ± 0.06
ACCTAGAC	0.109 ± 0.12
CAGGTCCG	-0.0754 ± 0.04
AGAACTGC	-0.0394 ± 0.11
GACAGTTA	0.155 ± 0.021
AGATCACG	0.0187 ± 0.025
TCCGCGAA	0.2876 ± 0.00083
AAATAAAG	-0.189 ± 0.11
TCACTAAA	0.163 ± 0.0075
CGACTAAA	-0.153 ± 0.025
AGCACAGG	-0.143 ± 0.017
ATCACGAA	0.00852 ± 0.034
ACCTCGAT	0.152 ± 0.037
AAGACAGG	-0.117 ± 0.0098
GAGAGTCC	-0.181 ± 0.049
CTTTATGA	0.0331 ± 0.046
AATTGTAG	-0.0995 ± 0.021
CCGCGAAG	0.353 ± 0.0062
AAAAGCGG	-0.254 ± 0.068
CGACGCCA	0.189 ± 0.073
AGTGTCCA	0.0307 ± 0.017

Sequence	PBM E-score of 8-mer
AAACGGAT	-0.0584 ± 0.052
GCCGAATA	-0.017 ± 0.035
GCACTTAA	0.254 ± 0.044
ACCTGACT	-0.00588 ± 0.018
ATTGCTCG	-0.1443 ± 0.00092
CCGTCTAC	-0.101 ± 0.09
CTTTCAAA	-0.203 ± 0.0062
CACGCCTC	0.395 ± 0.032
CCGAGGCA	-0.161 ± 0.046
CCATGCGC	-0.0395 ± 0.1
AATTGGAC	-0.187 ± 0.049
ACGCAGTC	-0.137 ± 0.022
GGCTACGA	-0.142 ± 0.061
AGGACCCA	-0.232 ± 0.078
CATCATCC	-0.166 ± 0.042
AATGTACA	-0.187 ± 0.021
CCTAGTAA	0.0407 ± 0.027
AACTATAG	-0.0665 ± 0.0063
GGTGCACC	-0.171 ± 0.024
CAGAATCA	-0.195 ± 0.0096
CTCGACCA	-0.0139 ± 0.069
GTTCTTAA	-0.157 ± 0.084

Sequence	PBM E-score of 8-mer
CTTTCTGC	0.0223 ± 0.02
CTTAATCC	-0.00895 ± 0.027
CATCGGTA	-0.0619 ± 0.043
GCAGTCCC	-0.0723 ± 0.00049
GGGGTGAA	0.0585 ± 0.016
ATTGGTGG	0.114 ± 0.0032
ACGTACAT	0.0867 ± 0.029
GTCATAGA	-0.157 ± 0.041
CCGTGAAG	0.242 ± 0.0076
AATGATCA	-0.151 ± 0.034
GCATTCGC	0.162 ± 0.056
CTACTTTA	0.0515 ± 0.034
CTCGTGTC	0.128 ± 0.0062
TGAGTCAA	-0.0868 ± 0.06
AGCCAGCA	-0.0748 ± 0.027
AACGGTAC	-0.122 ± 0.029
GCCTCAGC	-0.0272 ± 0.034
AATTATGC	-0.125 ± 0.071
CATCTATA	-0.059 ± 0.018
CCGCCCGG	-0.165 ± 0.034
GAGCAGTA	-0.00784 ± 0.039
AGCGACCA	-0.0754 ± 0.037

Sequence	PBM E-score of 8-mer
CTCTGAAA	-0.2424 ± 0.0021
ATTAAGCC	-0.241 ± 0.051
CGTTAGTC	-0.0488 ± 0.022
ATCTCCCG	-0.13 ± 0.049
ACTAGGAA	-0.203 ± 0.031
CCGCCGAC	0.0818 ± 0.087
GCAAATGC	-0.0842 ± 0.024
ATCGAATC	-0.213 ± 0.026
AATTAGGT	0.0528 ± 0.042
CGGACGTA	-0.258 ± 0.0079
ATGGCTAA	-0.061 ± 0.0095
ATAGCTAA	-0.28 ± 0.0086
AAACGCGG	-0.179 ± 0.033
AAGATTCT	-0.276 ± 0.003
GGATGTAC	-0.201 ± 0.011
GTTCACGA	0.275 ± 0.0011
CTCTACAG	-0.119 ± 0.087
CAGTTCTA	-0.0902 ± 0.016
AATTTAAG	-0.161 ± 0.043
AATTCCAG	-0.131 ± 0.041
CATCCTCA	0.00357 ± 0.061
CAGTGATA	0.0669 ± 0.091

Sequence	PBM E-score of 8-mer
ACATGTCC	-0.159 ± 0.09
AAAAGCTT	-0.0879 ± 0.17
CAGTACAA	-0.122 ± 0.075
GTACGGGA	-0.0385 ± 0.087
AATCTCAC	0.366 ± 0.016
CCATTGGG	-0.0394 ± 0.042
GGCAGTAC	-0.131 ± 0.07
ATTTCAAG	-0.254 ± 0.018
AAGAGAGA	-0.141 ± 0.03
GCCGGTAC	-0.178 ± 0.042
GTATACAA	-0.141 ± 0.037
GCGCATCC	-0.135 ± 0.076
ATACTTGG	-0.22 ± 0.046
GGGGAGTA	-0.283 ± 0.017
AATGGGTG	0.144 ± 0.011
ATCTATGG	-0.1227 ± 0.001
GTGTCAAA	0.444 ± 0.0081
AAAGGCCG	-0.153 ± 0.022
ACGAGACA	-0.13 ± 0.015
ACTGTTCT	0.0285 ± 0.011
CATTAACC	-0.281 ± 0.015

Source: the supplement of paper PMC4166925
